{"source": "PubChem BioAssay AID686978", "about": "(National Center for Advancing Translational Sciences (NCATS), 2013)", "note": "Where “and” joins values, the source holds several entries; their conditions need not be identical. Equal entries are not always repeated. Hit rate of the full screen: of about 420,000 compounds, about 64,000 (15%) were called active. Inconclusive means that the source gave no clear call. Such entries were picked first, then a sample of the others. Calls come from the whole dose curve; as a rule, active = well fitted inhibition curve with a large enough effect; inconclusive = small, poorly fitted or top-dose-only effect; inactive = flat fitted curve, though single readings scatter. Where the call is inconclusive, the potency comes from a doubtful curve fit."}
{"experiment": "qHTS for Inhibitors of human tyrosyl-DNA phosphodiesterase 1 (TDP1): qHTS in cells in absence of CPT; note: nearly all actives have a fitted effect of over 55% in size; note: potency is the fitted concentration of half-maximal effect; tags give direction and shape of the fitted curve; for activity change, negative = growth inhibition: % is set by controls: 0 for no effect and ±100 for the full control effect", "details": "DT40 Tdp1-/- hTDP1 cells, no CPT, ATP luminescence, 48 h; activity change, negative = growth inhibition: at 46.2 µM (top of the series) unless noted", "procedure,_shortened": "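Cells were dispensed at 400 per well, compounds added by pin tool, plates incubated ≥48 hr at 37 °C, then CellTiter-Glo added for 30 min at room temperature before luminescence reading. Line: DT40 Tdp1-/- complemented with hTDP1; camptothecin omitted.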"}
{"molecule": "CC1(O)CC(c2ccc(Cl)cc2)=NN1C(=O)c1ccc(Cl)cc1", "note": "(stereo not drawn)", "Potency": "active: 16.4 µM"}
{"molecule": "CCOC(=O)N1CCC(N2CCN(S(=O)(=O)c3ccc(C)cc3)CC2)CC1", "Potency": "inconclusive: 18.4 µM [inhibitor, partial curve]"}
{"molecule": "CC1CCN(S(=O)(=O)c2ccc(NC(=O)C3CC(=O)N(c4ccccc4)C3)cc2)CC1", "note": "(stereo not drawn)", "Potency": "inconclusive: 29.1 µM [inhibitor, single point]"}
{"molecule": "O=C(NCc1cccs1)C1CCN(S(=O)(=O)c2ccc3c(c2)OCCO3)CC1", "Potency": "inactive"}
{"molecule": "CC(C)c1ccc(/C=N/n2c(COc3ccccc3)n[nH]c2=S)cc1", "Potency": "inconclusive: 29.1 µM [inhibitor, single point]"}
{"molecule": "Cc1cc(OC(C)C(=O)N(Cc2ccco2)C2CCS(=O)(=O)C2)cc(C)c1Cl", "note": "(stereo not drawn)", "Potency": "active: 20.6 µM"}
{"molecule": "CCOC(=O)[C@@H](C)N(C(=O)OC(C)(C)C)S(=O)(=O)N(Cc1ccccc1)[C@H](C(=O)OC)C(C)C", "Potency": "inconclusive: 31.6 µM [inhibitor, single point] and inconclusive: 29.1 µM [inhibitor, single point]"}
{"molecule": "Cc1ccc(S(=O)(=O)c2cn(C)c3cc(N4CCN(C)CC4)c(F)cc3c2=O)cc1", "Potency": "inconclusive: 20.6 µM [inhibitor, single point] and inconclusive: 29.1 µM [inhibitor, single point]"}
{"molecule": "CCCCn1c(=O)[nH]c(=O)c2c1nc(-c1ccccc1F)n2Cc1ccccc1", "Potency": "inconclusive: 25.9 µM [inhibitor, single point]"}
{"molecule": "CC(=O)c1ccc(S(=O)(=O)N2CCCC(N(C)CCc3ccccn3)C2)cc1", "note": "(stereo not drawn)", "Potency": "inactive"}
{"molecule": "O=C(NCCc1c[nH]c2ccccc12)OC1CC2CC1[C@H]1CCCCN1C2=O", "note": "(stereo partly drawn)", "Potency": "inconclusive: 18.4 µM [inhibitor, partial curve, poor fit]"}
{"molecule": "CCc1cc2c(cc3c(=O)n(CC(=O)N4CCN(c5cc(Cl)ccc5C)CC4)ncn32)s1", "Potency": "inconclusive: 4.11 µM [inhibitor, full curve, poor fit]"}
{"molecule": "CCN1CCN(c2ncc(C(=O)Nc3c(F)cc(F)cc3Br)c3ccccc23)CC1", "Potency": "active: 15.8 µM"}
{"molecule": "Cc1cc(C)nc(N2CCN(c3ccc(F)cc3)CC2)n1", "Potency": "inactive"}
{"molecule": "COc1ccccc1C(=O)Nc1cc2c(cc1N1CCCCC1)n(C)c(=O)n2C", "Potency": "active: 13 µM"}
{"molecule": "CCn1c(=O)c(C(=O)CN2CCc3ccccc32)c(N)n(Cc2ccccc2)c1=O", "Potency": "inconclusive: 29.1 µM [inhibitor, single point]"}
{"molecule": "COc1cc(/C=C(\\C#N)C(=O)Nc2ccc3c(c2)OCCO3)ccc1O", "Potency": "inconclusive: 23.1 µM [inhibitor, single point]"}
{"molecule": "Nc1nonc1C(=O)NCCc1ccccc1", "Potency": "inactive"}
{"molecule": "Cc1ccc(C2C=C(c3ccc4c(c3)OCO4)Nc3ncnn32)cc1", "note": "(stereo not drawn)", "Potency": "inconclusive: 18.4 µM [inhibitor, single point]"}
{"molecule": "CCCCn1c(/C=N/Nc2nc3ccccc3[nH]2)nc2ccccc21", "Potency": "active: 5.17 µM"}
{"molecule": "COc1cc2c3c(c1)/C(=C1/SC(=S)NC1=O)C(=O)N3C(C)(C)C=C2C", "Potency": "inconclusive: 8.2 µM [inhibitor, partial curve]"}
{"molecule": "O=C(Nc1ccccn1)c1sc2cc([N+](=O)[O-])ccc2c1Cl", "Potency": "inconclusive: 18.4 µM [inhibitor, single point]"}
{"molecule": "COCc1c(C(=O)NCCOc2ccc(Cl)cc2)oc2ccccc12", "Potency": "active: 23.1 µM"}
{"molecule": "Cc1cccc(C)c1-n1ncc(C(=O)Nc2ccc3c(c2)OCCO3)c1C1CCN(C(=O)OC(C)(C)C)CC1", "Potency": "inconclusive: 23.1 µM [inhibitor, single point]"}
{"molecule": "CC1CC(C)CN(c2ccc(S(=O)(=O)N3CCOCC3)cc2)C1", "note": "(stereo not drawn)", "Potency": "inconclusive: 29.1 µM [inhibitor, single point]"}
{"molecule": "COc1cc(C)c(Cl)cc1S(=O)(=O)NCC1CCCO1", "note": "(stereo not drawn)", "activity change, negative = growth inhibition": "inconclusive: 6.4% [inhibitor]"}
{"molecule": "O=C(Nc1cc(Cl)ccn1)C1CCN(S(=O)(=O)c2cccs2)CC1", "Potency": "inconclusive: 29.1 µM [inhibitor, single point]"}
{"molecule": "O=C(CCCCCn1c(=S)[nH]c2ccc(N3CCOCC3)cc2c1=O)NCc1ccc2c(c1)OCO2", "Potency": "inconclusive: 14.6 µM [inhibitor, single point]"}
{"molecule": "COc1ccc(CCCNC(=O)C2CCC(=O)N(CCc3cccc(F)c3)C2)cc1", "note": "(stereo not drawn)", "Potency": "inconclusive: 16.4 µM [inhibitor, single point]"}
{"molecule": "COc1ccccc1NC(=O)/C(=N/OCc1ccc(C#N)cc1)C(C)=O", "Potency": "inactive"}
{"molecule": "Cc1c(Cl)cccc1NC(=O)c1ccccc1-c1ccccc1C(=O)O", "Potency": "inactive"}
{"molecule": "COc1ccccc1N1CCN(S(=O)(=O)c2c(C)sc3ncn(CC(=O)N(C)c4ccc(C(C)C)cc4)c(=O)c23)CC1", "Potency": "inconclusive: 23.1 µM [inhibitor, single point]"}
{"molecule": "CN1/C(=C\\C=Nc2cc(S(=O)(=O)N3CCOCC3)ccc2N2CCOCC2)C(C)(C)c2ccccc21", "Potency": "active: 20.6 µM"}
{"molecule": "CNS(=O)(=O)c1ccc(OC)c(-c2nnc3c4ccccc4c(C)nn23)c1", "Potency": "inconclusive: 29.1 µM [inhibitor, single point]"}
{"molecule": "COc1ccc(OCCNC(=S)Nc2cccc3ccccc23)cc1", "Potency": "active: 23.1 µM"}
{"molecule": "COc1ccc(CNS(=O)(=O)c2ccc3c(c2)NC(=O)C(C)S3)cc1", "note": "(stereo not drawn)", "Potency": "inconclusive: 25.9 µM [inhibitor, partial curve, poor fit]"}
{"molecule": "N#Cc1ccc(S(=O)(=O)NC2CCCCNC2=O)cc1", "note": "(stereo not drawn)", "Potency": "inactive"}
{"molecule": "CC1CCCN(C(=O)CN2CCC(c3nc4ccc(Cl)cc4[nH]3)CC2)C1", "note": "(stereo not drawn)", "activity change, negative = growth inhibition": "inconclusive: -33.6% [inhibitor]"}
{"molecule": "CN(C(=O)c1ccccc1OCc1ccc(Cl)cc1)c1ccccc1", "Potency": "inconclusive: 14.6 µM [inhibitor, partial curve]"}
{"molecule": "Cc1[nH]n(-c2ccccc2)c(=O)c1C1(C(F)(F)F)C(=O)N(c2ccc(F)cc2)C2=C1C(=O)CC(C)(C)C2", "note": "(stereo not drawn)", "Potency": "inactive"}
{"molecule": "Cc1ccc(-c2cc(N)n3nc(-c4ccc(C)cc4)cc3n2)cc1", "Potency": "inconclusive: 25.9 µM [inhibitor, single point]"}
{"molecule": "Cc1ccc2c(c1)C1CN(C)CCC1N2C(=O)c1cccc(S(=O)(=O)N2CC(C)CC(C)C2)c1", "note": "(stereo not drawn)", "Potency": "inconclusive: 23.1 µM [inhibitor, single point]"}
{"molecule": "Cc1cccc(C)c1OCC(O)CN1CCN(C(=O)c2ccccc2)CC1", "note": "(stereo not drawn)", "Potency": "inactive"}
{"molecule": "CCOc1ccccc1OCCCC(=O)Nc1cc(S(=O)(=O)N2CCOCC2)ccc1OC", "Potency": "inconclusive: 29.1 µM [inhibitor, single point]"}
{"molecule": "CCOc1ccc(/C=N/NC(=O)CSc2n[nH]c(=O)[nH]c2=O)cc1OC", "Potency": "inactive"}
{"molecule": "COc1ccccc1/C=N/Nc1nccnc1Cl", "Potency": "inactive"}
{"molecule": "O=C(Cc1ccc(-c2ccccc2)cc1)N1CCOCC1", "activity change, negative = growth inhibition": "inconclusive: -31% [inhibitor]"}
{"molecule": "Cc1ccc2c(c1)sc1nc(=O)n(-c3ccc(Cl)cc3)c(=O)n12", "Potency": "inactive"}
{"molecule": "CN1CCN(CCCNC(=O)Cn2c(-c3cccs3)cc3ccccc32)CC1", "Potency": "inconclusive: 29.1 µM [inhibitor, single point]"}
{"molecule": "Cc1ccc(Nc2c(-c3ccc(N(C)C)cc3)nc3ncccn23)cc1", "Potency": "inconclusive: 16.4 µM [inhibitor, single point]"}
{"molecule": "CCOC(=O)c1c(N2C(=O)CC(Sc3ccccc3C(=O)O)C2=O)sc(C)c1C", "note": "(stereo not drawn)", "Potency": "inconclusive: 29.1 µM [inhibitor, single point]"}
{"molecule": "C/C(=N\\NC(=O)c1cc2ccccc2cc1O)c1cc2ccccc2o1", "Potency": "active: 14.6 µM"}
{"molecule": "O=C(O)CCCNC(=O)c1nn(Cc2ccccc2)c(=O)c2ccccc12", "Potency": "inactive"}
{"molecule": "COc1ccc(N(C(=O)Cn2cnc3ccccc32)C(C(=O)NC2CCCCC2)c2ccccc2)cc1", "note": "(stereo not drawn)", "Potency": "inconclusive: 25.9 µM [inhibitor, single point]"}
{"molecule": "O=C(C[n+]1cc(-c2ccccc2)n2c1CCC2)Nc1nc(-c2ccc(F)cc2)cs1", "Potency": "active: 16.4 µM"}
{"molecule": "COc1ccc(OC)c(C2CC(=O)c3c([nH]c(C(=O)OC4CCC(C)CC4)c3C)C2)c1", "note": "(stereo not drawn)", "Potency": "active: 8.2 µM"}
{"molecule": "O=P(Cc1ccccc1)(c1ccccc1)c1ccccc1", "Potency": "inconclusive: 11.6 µM [inhibitor, partial curve]"}
{"molecule": "CCc1ccc(NC(=O)C2CCN(S(=O)(=O)c3c(C)noc3/C=C/N(C)C)CC2)cc1", "Potency": "active: 9.2 µM"}
{"molecule": "O=C(c1ccco1)N1CCN(c2nc3ccccc3n3nnnc23)CC1", "Potency": "inconclusive: 29.1 µM [inhibitor, single point]"}
{"molecule": "COc1ccccc1N1CCN(C2CCCN(C(=O)c3cc(C(C)C)on3)C2)CC1", "note": "(stereo not drawn)", "Potency": "inconclusive: 18.4 µM [inhibitor, single point]"}
{"molecule": "COc1cc(NC(=O)c2cc(-c3ccc4c(c3)OCO4)on2)cc(OC)c1OC", "Potency": "inconclusive: 4.61 µM [inhibitor, partial curve]"}
{"molecule": "CC1CCN(c2ccc([N+](=O)[O-])cc2C(N)=O)CC1", "Potency": "inconclusive: 29.1 µM [inhibitor, single point]"}
{"molecule": "COc1cccc(C(=O)NC2CCCc3c2cnn3-c2ccc(C)c(C)c2)c1OC", "note": "(stereo not drawn)", "Potency": "inconclusive: 18.4 µM [inhibitor, single point]"}
{"molecule": "CC(CC(=O)NCc1ccc(Cl)cc1)CC1=NS(=O)(=O)c2ccccc2N1", "note": "(stereo not drawn)", "Potency": "inconclusive: 6.51 µM [inhibitor, partial curve]"}
{"molecule": "O=C(Cn1cc(SCc2ccc(C(F)(F)F)cc2)c2ccccc21)N1CCCCC1", "Potency": "active: 23.1 µM"}
{"molecule": "CC(C)=CCC/C(C)=C/C=N/NC(=O)c1cccc([N+](=O)[O-])c1", "Potency": "inactive"}
{"molecule": "CO[C@H]1[C@H](NC(=O)c2ccsc2)c2ccccc2C12CCN(Cc1cnn(C)c1C)CC2", "Potency": "inactive"}
{"molecule": "COc1ccc2c(CNCc3ccc(Cl)cc3)c(C(=O)O)n(Cc3ccccc3C)c2c1", "Potency": "active: 1.16 µM"}
